Data as given in PubChem BioAssay AID1347073 (National Center for Advancing Translational Sciences (NCATS), 2019).
Among all 45,000 compounds or so, about 200 (0.44%) were called active. Roughly 7% stayed inconclusive and do not appear here. Calls follow the shape of the dose curve; as a rule, active = well fitted activation curve with a large enough effect; inconclusive = small, poorly fitted or top-dose-only effect; inactive = no such curve, though single readings can be large or run the other way. Some of the results follow.

Assay: qHTS of TDP-43 Inhibitors: NCGC Sytravon Library Screen; also: 0% is about no effect; nearly all actives have a fitted effect of over 55% in size
Settings: yeast TDP-43 toxicity rescue, BacTiter-Glo growth, 24 h; series mostly up to 46.1 µM; growth rescue (activation): at the top concentration
Outline: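 TDP-43-expressing yeast, pregrown in raffinose, seeded at OD600 0.02 in galactose medium with compound for 24 hr at 30 deg C. Growth read by BacTiter-Glo luminescence, so rescue of toxicity appears as activation.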

Row | Structure (SMILES) | growth rescue (activation)
1 | CCN(C(=O)COC(=O)c1ccc2c(c1)OCO2)c1ccccc1 | inactive: 14.7%
2 | Cc1sc2ncnc(SCC(=O)c3ccc4c(c3)OCCO4)c2c1-c1ccccc1 | inactive: -2.79%
3 | O=C(/C=C/c1cccnc1)c1ccc(O)cc1 | inactive: 15%
4 | COc1ccc(/C=N/NC(=O)CN(C2=NS(=O)(=O)c3ccccc32)c2ccccc2)cc1OC | inactive: 7.1%
5 | Fc1ccccc1CN1CCCN(C(=S)Nc2cccc(Cl)c2)C1 | inactive: 25.5%
6 | Cc1cccc(N2C(=O)Cc3ccccc3C2=O)c1 | inactive: -32.7%
7 | COc1cccc(C(=O)NCC(=O)OCC(=O)Nc2cc(OC)c([N+](=O)[O-])cc2C)c1 | inactive: -9.15%
8 | CCOC(=O)N1CCN(C(=O)N2CCOCC2)CC1 | inactive: 20.8%
9 | O=C(Nc1ccc(S(=O)(=O)N2CCOCC2)cc1)c1ccc(CN2CCc3ccccc3C2)cc1 | inactive: -11.2%
10 | O=S(=O)(Cc1ccccc1)Nc1ccc(F)cc1 | inactive: 9.65%
11 | CC(C)C[C@H](NC(=O)NCc1ccc(Cl)cc1)C(=O)O | inactive: -1.82%
12 | CCOC(=O)C1=C(C)NC(C)=C(C(=O)OCC)C1C(=O)OCC(=O)NC(C)C | inactive: 9.85%
13 | CCOC(=O)C1=C(C)NC(C)=C(C(=O)OCC)C1C(=O)OCC(=O)N(C)C | inactive: 9.69%
14 | CCc1ccc(N2C(=O)CN(CC(=O)OC)C2=S)cc1 | inactive: -12.6%
15 | Cc1ccc(C(C(=O)NC(C)(C)C)N(Cc2ccco2)C(=O)CCC(=O)Nc2ccccn2)cc1 (stereo unspecified) | inactive: -4.87%
16 | O=C(NC1CCN(C(=S)Nc2ccc(Cl)cc2)CC1)c1ccco1 | inactive: 4.69%
17 | O=[N+]([O-])c1ccc(-c2nc(C(Cl)Cl)c3ccccc3n2)cc1 | inactive: 0.332%
18 | Cc1ccc(S(=O)(=O)Nc2ccc(Cl)cc2C(=O)c2ccccc2)cc1 | inactive: -5%
19 | CCc1ccccc1NC(=O)CSc1nnc(C2CC2)n1CC1CCCO1 (stereo unspecified) | inactive: -0.428%
20 | COc1ccc(/C(N)=N/OC(=O)C2CCC(=O)N2S(=O)(=O)c2ccc(C)cc2)cc1 (stereo unspecified) | inactive: 6.93%
21 | COCCSc1nnc(NC(=O)c2cc(OC)c(OC)cc2[N+](=O)[O-])s1 | inactive: -8.37%
22 | CC(=O)Nc1ccc(S(=O)(=O)N(C)c2ccc(OCCOc3ccccc3F)cc2)cc1 | inactive: 12.8%

Row | Structure (SMILES) | growth rescue (activation)
23 | CC1(Oc2cccc(C#N)c2)CCN(Cc2csc3ccccc23)C1 (stereo unspecified) | inactive: 4.29%
24 | CC(C)(C)c1cc(CCC(=O)NNC(=O)c2ccco2)cc(C(C)(C)C)c1O | inactive: 4.12%
25 | COc1cc(CN2C[C@@H](CO)O[C@@H](n3cnc4c(NC5CC5)ncnc43)C2)cc(OC)c1OC | inactive: 7.18%
26 | CCCNC(=O)C1(C)CCN(Cc2noc(-c3ccccc3OC)n2)C1 (stereo unspecified) | inactive: 11.3%
27 | COc1ccc(S(=O)(=O)Nc2cc(C(=O)NCCCOC(C)C)ccc2N2CCOCC2)cc1 | inactive: -18%
28 | COc1ccc(CCC(=O)OCC(=O)NCc2ccc(OC)c(OC)c2)cc1OC | inactive: 26.1%
29 | O=C(NCCc1ccccc1)Nc1ccc(Cl)cc1 | inactive: 20.7%
30 | CN(C)S(=O)(=O)c1cc(NC(=O)CNCc2ccccc2)ccc1Cl | inactive: -8.28%
31 | CS(=O)(=O)Nc1ccccc1C(=O)NCc1ccccc1Cl | inactive: -6.02%
32 | CNC(=O)N(C1=NCCCCC1)c1ccc(Br)cc1 | inactive: 18%
33 | O=C1c2ccccc2C(=O)N1c1ccc(S(=O)(=O)N2CCN(c3ccccc3)CC2)cc1 | inactive: 15.3%
34 | COC(=O)c1ccc(-c2ncc[nH]2)cc1 | inactive: -14.4%
35 | Cc1ccc(NC(=O)CCNC(=O)c2ccc(Cl)cc2)cc1F | inactive: 10.6%
36 | CSc1cccc(NC(=O)CSc2ncccc2C(=O)Oc2cccc([N+](=O)[O-])c2)c1 | inactive: -2.43%
37 | NCCc1c(-c2ccccc2)n(-c2ccccc2)c2ccccc12 | inactive: -2.68%
38 | COc1ccc(C(=O)NNC(=O)c2cccc(S(=O)(=O)N3CCOCC3)c2)cc1 | inactive: 4.14%
39 | Oc1ccc(-c2nc3ccc(Cl)cn3c2Nc2ccc(Cl)cc2)cc1 | inactive: 11%
40 | O=C(CSc1nnc(-c2ccncc2)o1)NCc1ccccc1Cl | inactive: 2.7%
41 | COc1ccc(C(CNc2ccc(S(=O)(=O)N3CCCC3)cc2[N+](=O)[O-])N2CCCC2)cc1 (stereo unspecified) | inactive: -24.1%
42 | O=C(CCC(=O)N(CC(=O)NC1CCCC1)Cc1ccccc1)Nc1nccs1 | inactive: 9.9%
43 | CC1CC(C)CN(C(=O)Cn2nnc(-c3ccccc3)n2)C1 (stereo unspecified) | inactive: 9.71%
44 | CCOc1cccc(OCCCCN2CCOCC2)c1 | inactive: -30.6%

Row | Structure (SMILES) | growth rescue (activation)
45 | COc1ccc(Cc2n[nH]c(=S)n2C)cc1Br | inactive: 6.99%
46 | CC(NC(=O)COC(=O)Cc1ccc(Cl)cc1)c1ccccc1 (stereo unspecified) | inactive: 11.1%
47 | O=C(COC(=O)CCC(=O)N1CCOCC1)Nc1ccc(Br)cc1Br | inactive: -8.61%
48 | CN(C(=O)CSc1nnc(-c2ccco2)n1N)C1CCCCC1 | inactive: -7.34%
49 | COc1ccccc1NC(=O)Nc1nnc(CC(=O)Nc2ccccc2C)s1 | inactive: 13.5%
50 | O=C(NCCCN1CCCC1=O)c1cc(-c2ccc(F)cc2)nc2ccccc12 | inactive: 8.76%
51 | O=C(Nc1ccc2[nH]c3c(c2c1)CCCC3)c1ccco1 | inactive: 14.9%
52 | Cn1cccc1-c1cc(C(=O)N/N=C/c2ccc(F)cc2)[nH]n1 | inactive: -3.79%
53 | Cc1cc(C)n(-c2nnc3c4ccccc4n(C)c3n2)n1 | inactive: -11.1%
54 | CCOc1ccccc1N1CCN(C(=O)NC(C)c2ccc(F)c(F)c2)CC1 (stereo unspecified) | inactive: 17%
55 | CCOc1ccc(C(=O)NC(=S)NC2CCCC2)cc1[N+](=O)[O-] | inactive: 25.6%
56 | CCCCn1c(SCC(=O)N2CCOCC2)nc2ccccc2c1=O | inactive: 11.3%
57 | CCCCOc1ccc(C(C)NC(=O)CCS(=O)(=O)Cc2ccc(C)cc2)cc1 (stereo unspecified) | inactive: -15.1%
58 | Cc1sc2nc(CC(=O)NN)[nH]c(=O)c2c1C | inactive: 8.63%
59 | Cc1[nH]c2ccc(-c3n[nH]c(=S)n3Cc3ccccc3)cc2c1C | inactive: 21.8%
60 | COc1ccc(OC)c(NC(=O)c2ccc(CN(c3cc(Cl)ccc3C)S(=O)(=O)c3ccccc3)cc2)c1 | inactive: -15.4%
61 | COc1ccc(NC(=O)C(C)N(C)Cc2ccc3ccccc3c2)cc1 (stereo unspecified) | inactive: -5.86%
62 | Cc1nc2cc(C(=O)OCC(=O)Nc3cccc(Cl)c3)ccc2n1-c1ccccc1 | inactive: 17.9%
63 | COCC1CCN(Cc2cn[nH]c2-c2ccc(OC)cc2F)C1 (stereo unspecified) | inactive: -7.83%
64 | FC(F)(F)c1ccc(Cl)c(N/N=C/c2ccc(N3CCOCC3)s2)c1 | inactive: 6.72%
65 | COc1cc(C(=O)NCCCNc2nc3cc(C)c(C)cc3cc2C#N)cc(OC)c1OC | inactive: -2.6%
66 | CCOc1ccc(CCNC(=O)c2cc(C)nn2-c2ccccc2)cc1 | inactive: 23.9%

Row | Structure (SMILES) | growth rescue (activation)
67 | Cc1ccc(-c2nc3ncccc3o2)cc1NC(=O)c1ccc2c(c1)OCO2 | inactive: -0.247%
68 | CC[C@@H](C)[C@H](NC(=O)Cc1c(C)c2c(cc(C)c3c(C)c(C)oc32)oc1=O)C(=O)O | inactive: -8.55%
69 | Cc1cccc(N2CCN(C(=O)c3ccccn3)CC2C)c1 (stereo unspecified) | inactive: 6.67%
70 | CCOC(=O)CC1=NC(=O)CS1 | inactive: 18.7%
71 | C=C(C)CNC(=S)N/N=C/c1ccc(N2CCOCC2)cc1 | inactive: 20.4%
72 | CN(C)S(=O)(=O)N1CCN(c2ccc([N+](=O)[O-])c(NC3CC3)c2)CC1 | inactive: -7.31%
73 | O=C(CCc1ccc(S(=O)(=O)NC2CCCCC2)cc1)NCc1cccnc1 | inactive: -15.4%
74 | COc1ccccc1CNC(=O)c1cc(C(C)C)nc2ccccc12 | inactive: 11%
75 | Cc1ccc(S(=O)(=O)Nc2nc3n(n2)C(c2ccc(Cl)cc2)CC(=O)N3)cc1 (stereo unspecified) | inactive: -4.95%
76 | CNC(=O)NC(=O)C(c1ccccc1)N(C)CC1COc2ccccc2O1 (stereo unspecified) | inactive: 3.67%
77 | CC(Sc1ncccn1)C(=O)N1CCc2ccccc21 (stereo unspecified) | inactive: -20.4%
78 | O=C(COC(=O)CCC(=O)c1ccc(F)cc1)NCc1ccc(Cl)cc1 | inactive: 12.8%
79 | CC(=O)c1cccc(NC(=O)CC(C)n2ccnc2)c1 (stereo unspecified) | inactive: -17.2%
80 | CC(C)(Oc1ccc(Cl)cc1)C(=O)N1CCN(C(=O)c2ccco2)CC1 | inactive: -4.35%
81 | CCOc1ccccc1NC(=O)COC(=O)C(CC(C)C)N1C(=O)C2CC=CCC2C1=O (stereo unspecified) | inactive: -6.49%
82 | CC1CCCCN1Cc1c(O)ccc2c(=O)c(-c3ccc(Cl)cc3)coc12 (stereo unspecified) | inactive: 17.7%
83 | O=C(NC(=S)NCCN1CCOCC1)c1ccccc1Br | inactive: -1.22%
84 | CCn1c(-c2nn(-c3ccccc3)ccc2=O)n[nH]c1=S | inactive: -12.7%
85 | COc1ccccc1CN(C)C(=O)c1cc(-c2cccs2)nc2ccccc12 | inactive: 24.4%
86 | COc1cccc(CNC2CCCc3ccccc32)c1OC (stereo unspecified) | inactive: -2.45%
87 | O=C(C1=C(O)C(=O)N(Cc2ccccc2)C1c1ccco1)c1ccco1 (stereo unspecified) | inactive: 12.4%
88 | CCCN1C/C(=C/c2cccc([N+](=O)[O-])c2)C(=O)/C(=C/c2cccc([N+](=O)[O-])c2)C1 | inactive: -0.0954%

Row | Structure (SMILES) | growth rescue (activation)
89 | COc1ccccc1C(=O)COC(=O)Cc1ccccc1F | inactive: 13.3%
90 | COc1ccc(CN2CCCC(C(=O)c3cccc(C(F)(F)F)c3)C2)cc1O (stereo unspecified) | inactive: 2.56%
91 | Cc1ccc(O)c(C(=O)c2cnn(C(=O)c3cccc(S(=O)(=O)N(C)C)c3)c2)c1 | inactive: 15%
92 | Cc1nn(C)c(C)c1Nc1ccc(N2C(=O)C3C4C=CC(C4)C3C2=O)cc1[N+](=O)[O-] (stereo unspecified) | inactive: -2.8%
93 | Cc1ccc(S(=O)(=O)/N=C(/NC(=S)Nc2cccc(C)c2)c2ccccc2)cc1 | inactive: 27.2%
94 | O=C(Nc1cccc(Cl)c1)C1C2C=CC3(O2)C1C(=O)N(CCN1CCCCC1)C3C(=O)NC1CCCCC1 (stereo unspecified) | inactive: 0.135%
95 | Cc1cccc(C(=O)OCC(=O)NC(C)CCc2ccccc2)c1O (stereo unspecified) | inactive: -8.55%
96 | S=C(Nc1ccc2nc(-c3ccccn3)c(-c3ccccn3)nc2c1)N1CCCCC1 | inactive: 16.4%
97 | O=C(O)CCC(=O)N1c2ccccc2NC2=C(C(=O)CC(c3ccc(F)cc3)C2)C1c1ccc([N+](=O)[O-])o1 (stereo unspecified) | inactive: 4.95%
98 | CN(C(=O)CSc1nnc(-c2cccs2)o1)C1CCS(=O)(=O)C1 (stereo unspecified) | inactive: -1.6%
99 | O=C(COC(=O)Cn1cnc2ccccc2c1=O)NCCC1=CCCCC1 | inactive: 4.36%
100 | COc1ccc(NC(=O)Cc2nnc(SCC(=O)NC3CCCCC3C)n2C)cc1 (stereo unspecified) | inactive: 15.8%
101 | CC(=O)Nc1ccc(S(=O)(=O)NCC(=O)NC(C)c2ccc(S(N)(=O)=O)cc2)cc1 (stereo unspecified) | inactive: 28.8%
102 | COc1ccc(C)cc1Nc1c2c(nc3ccccc13)CCC2 | inactive: -9.93%
103 | N#C/C(=C\c1ccc(N2CCCCC2)o1)C(N)=O | inactive: 15.4%
104 | CN1CCN(CC(=O)N/N=C/c2ccc(F)c(F)c2)CC1 | inactive: 6.32%
105 | COc1cccc(NC(=O)c2ccccc2-c2ccccc2)c1 | inactive: 8.14%
106 | CC(C)(C)C(=O)Cn1c(=O)n(CCCCCC(=O)NCc2ccccc2Cl)c(=O)c2sccc21 | inactive: 3.76%
